{
  "source": "PubChem BioAssay AID720542",
  "about": "(National Center for Advancing Translational Sciences (NCATS), 2013)",
  "note": "Values joined by “and” are separate entries in the source; they are usually repeats but may differ in a detail not shown here. Identical values can stand only once. Out of some 360,000 compounds screened, about 740 (0.21%) were called active. This list was built around the results that the source calls inconclusive (neither active nor inactive); the mix of calls is not that of the screen. Calls come from the whole dose curve; as a rule, active = well fitted inhibition curve with a large enough effect; inconclusive = small, poorly fitted or top-dose-only effect; inactive = no such curve, though single readings can be large or run the other way. Potencies of inconclusive entries are doubtful fits and often do not repeat. Potency is the fitted concentration of half-maximal effect; tags give direction and shape of the fitted curve.",
  "data": [
    {"tested_on": "Plasmodium falciparum AMA1 (3D7) - RON2 peptide interaction", "assay": "qHTS for Inhibitors of AMA1-RON; Towards Development of Antimalarial Drug Lead: Primary Screen; note: nearly all actives have a fitted effect of over 45% in size;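 for activity change, negative = inhibition: 0% = vehicle wells and -100% = peptide control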", "details": "AlphaScreen AMA1-biotinylated RON2 peptide binding; activity change, negative = inhibition: at 58.2 µM (top of the series) unless noted", "summary_of_the_method": "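AMA1 (3D7) with his tag at 25 nM final met compounds first, then biotinylated RON2 peptide at 25 nM; detection used donor plus acceptor beads, 10 µg/mL apiece, read by AlphaScreen after 30 min at room temperature.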", "values": [
      {"smiles": "C=CCNC(=O)c1ccc2nccnc2c1", "Potency": "inconclusive: 3.36 µM [inhibitor, partial curve, poor fit]"},
      {"smiles": "CC1Cc2ccccc2N1C(=O)c1cccnc1", "note": "(configuration not stated)", "activity change, negative = inhibition": "inactive: -5.66%"},
      {"smiles": "COc1ccc(NCc2nc3ccccc3n2CCOc2ccccc2)cc1", "Potency": "inconclusive: 35.5 µM [inhibitor, partial curve]"},
      {"smiles": "COc1cccc(/C=C/C(=O)c2cccc([N+](=O)[O-])c2)c1", "Potency": "inconclusive: 39.8 µM [inhibitor, partial curve]"},
      {"smiles": "CCCCNS(=O)(=O)c1ccc(NC(=O)Cc2ccc(OC)cc2)cc1", "activity change, negative = inhibition": "inactive: 12.9%"},
      {"smiles": "CCOC(=O)C1CCCN(c2c(Nc3ccc(OCC)cc3)c(=O)c2=O)C1", "note": "(configuration not stated)", "activity change, negative = inhibition": "inactive: -4.7%"},
      {"smiles": "COc1ccc(NC(c2ccccc2F)P(=O)(Oc2ccccc2)Oc2ccccc2)cc1", "note": "(configuration not stated)", "Potency": "inconclusive: 15.8 µM [inhibitor, partial curve]"},
      {"smiles": "c1cc2c(cc1NC1CCCCCC1)OCO2", "Potency": "inconclusive: 39.8 µM [inhibitor, single point]"},
      {"smiles": "Cc1onc(-c2ccccc2Cl)c1C(=O)N1CCCc2ccccc21", "activity change, negative = inhibition": "inactive: -5.77%"},
      {"smiles": "CCNC(=O)COc1ccc(Br)cc1Cl", "Potency": "inconclusive: 8.91 µM [inhibitor, single point]"},
      {"smiles": "COc1ccc(C2N(c3ccccc3)CCN2c2ccccc2)cc1O", "Potency": "inconclusive: 31.6 µM [inhibitor, partial curve]"},
      {"smiles": "CC1CCN(c2ccc([N+](=O)[O-])cc2C(=O)NCC2CCCO2)CC1", "note": "(configuration not stated)", "Potency": "inconclusive: 14.1 µM [inhibitor, partial curve]"},
      {"smiles": "COC(=O)C1=C(C(=O)c2ccccc2)C(c2ccc(OC)c(OC)c2)Nc2nnnn21", "note": "(configuration not stated)", "Potency": "inconclusive: 14.1 µM [inhibitor, partial curve]"},
      {"smiles": "CCN(CC)c1ccc(NC(=S)NC(=O)Cc2ccccc2)cc1", "Potency": "inconclusive: 7.94 µM [inhibitor, partial curve]"},
      {"smiles": "CCOC(=O)c1cn[nH]c1NC(=S)Nc1ccc(Cl)cc1", "activity change, negative = inhibition": "inactive: 88.9%"},
      {"smiles": "COc1cc(/C=N/NC(=O)Nc2cccc3nsnc23)cc(OC)c1OC", "activity change, negative = inhibition": "inactive: -9.39%"},
      {"smiles": "CC(C)CN(CC(C)C)C(=O)Cc1coc2ccc3ccccc3c12", "Potency": "inconclusive: 25.1 µM [inhibitor, single point]"},
      {"smiles": "Nc1nc2c(Cl)cc(Cl)cc2s1", "activity change, negative = inhibition": "inactive: 13.1%"},
      {"smiles": "O=C(Nc1ccc2c(c1)OCCO2)C1c2ccccc2OCC(=O)N1Cc1ccccc1", "note": "(configuration not stated)", "activity change, negative = inhibition": "inactive: 10.9%"},
      {"smiles": "O=C1CCN(CCc2ccccc2)CCN1[C@H](CSc1ccccc1)c1ccccc1", "Potency": "inconclusive: 11.2 µM [inhibitor, partial curve]"},
      {"smiles": "CCCC(=O)N(C)c1nnc(-c2ccc(OC)cc2)s1", "activity change, negative = inhibition": "inactive: 5.47%"},
      {"smiles": "Cc1cc2ccc3ccccc3c2cc1CN(C)C", "Potency": "inconclusive: 17.8 µM [inhibitor, partial curve]"},
      {"smiles": "COc1ccc(Br)cc1CN(C)CC(=O)Nc1cccc(S(=O)(=O)N2CCCC2)c1", "Potency": "inconclusive: 25.1 µM [inhibitor, single point]"},
      {"smiles": "CC1CC(C)CN(C(=O)C(C)N(C)CC(=O)Nc2ccc(Cl)cc2)C1", "note": "(configuration not stated)", "Potency": "inconclusive: 22.4 µM [inhibitor, partial curve]"},
      {"smiles": "Cc1ccc(C(=O)Nc2ccc(C(F)(F)F)n(C)c2=O)cc1", "activity change, negative = inhibition": "inactive: -0.715%"},
      {"smiles": "COc1ccccc1C=NN1CCCCCC1", "Potency": "inconclusive: 22.4 µM [inhibitor, partial curve]"},
      {"smiles": "CCOC(=O)c1sc2nc(SCC#N)n(CCCN3CCCC3=O)c(=O)c2c1C", "activity change, negative = inhibition": "inactive: -0.484%"},
      {"smiles": "CCOc1ccc(C(=O)NN2C(=S)NC(C)(C)C=C2C)cc1", "activity change, negative = inhibition": "inactive: 9.23%"},
      {"smiles": "COc1cc(CN(CCN(C)C)Cc2ccccc2)ccc1OCc1ccccc1", "Potency": "inconclusive: 35.5 µM [inhibitor, partial curve]"},
      {"smiles": "CC(O)CNC(=O)C1CCN(Cc2ccc(OCc3ccccc3)cc2)CC1", "note": "(configuration not stated)", "Potency": "inconclusive: 26.7 µM [inhibitor, single point]"},
      {"smiles": "CC(C)c1ccc(N=c2c([N+](=O)[O-])nn(-c3ccc4c(c3)OCCO4)n2O)cc1", "Potency": "inconclusive: 29.9 µM [inhibitor, partial curve]"},
      {"smiles": "CCCOc1ccc(/C(O)=C2/C(=O)C(=O)N(CCCn3ccnc3)C2c2cccnc2)cc1", "note": "(configuration not stated)", "activity change, negative = inhibition": "inactive: -10.4%"},
      {"smiles": "O=S1(=O)C[C@@H](N2CCC(Cc3ccccc3)CC2)[C@H](COCc2ccccc2)N1", "activity change, negative = inhibition": "inactive: -19.6%"},
      {"smiles": "Cc1ccc(NNC(=O)c2cc(C(C)(C)C)nn2Cc2ccccc2)cc1", "Potency": "inconclusive: 12.6 µM [inhibitor, single point]"},
      {"smiles": "c1ccc(Nc2scc(-c3ccccc3)[n+]2Cc2ccco2)cc1", "Potency": "inconclusive: 25.1 µM [inhibitor, partial curve]"},
      {"smiles": "COc1cccc(/C=N/NC(=O)COc2cccc3cccnc23)c1O", "activity change, negative = inhibition": "inactive: 40.5%"},
      {"smiles": "CC1=CC(=C2C(=O)c3ccccc3C2=O)C=C(C)N1Cc1ccco1", "activity change, negative = inhibition": "inactive: -2.16%"},
      {"smiles": "NC(=O)c1c(NC(=O)c2ccncc2)sc2c1CCCCCC2", "activity change, negative = inhibition": "inactive: -7.85%"},
      {"smiles": "CCSCC1COC(c2cccn2Cc2ccc(C)cc2)=N1", "note": "(configuration not stated)", "Potency": "inconclusive: 39.8 µM [inhibitor, single point]"},
      {"smiles": "Cc1cccc(N2CCN(C(=S)c3ccc([N+](=O)[O-])cc3)CC2)c1", "Potency": "inconclusive: 10 µM [inhibitor, partial curve]"},
      {"smiles": "Cc1ccc(C(=O)O)cc1-c1ccc(/C=C2\\SC(=O)N(CC(=O)Nc3ccccc3)C2=O)o1", "Potency": "inconclusive: 3.16 µM [inhibitor, partial curve]"},
      {"smiles": "CCN(CC)c1ccc(/C=N/Nc2ccc(C)cc2)c(O)c1", "Potency": "inconclusive: 14.1 µM [inhibitor, partial curve]"},
      {"smiles": "CCOc1ccc(NC2=C(Cl)C(=O)N(Cc3ccccc3)C2=O)cc1", "Potency": "inconclusive: 29.9 µM [inhibitor, single point]"},
      {"smiles": "Cc1ccc2c(c1)c1c(n2CC(O)CNC2CCCCC2)CCCC1", "note": "(configuration not stated)", "Potency": "inconclusive: 39.8 µM [inhibitor, single point]"},
      {"smiles": "Cc1cc(C)n2nc3nc(N4CCCCC4)nc(-c4ccco4)c3c2n1", "Potency": "inconclusive: 28.2 µM [inhibitor, single point]"},
      {"smiles": "CN(C)c1ccc(CNc2ncc(Br)cc2Br)cc1", "Potency": "inconclusive: 28.2 µM [inhibitor, single point]"},
      {"smiles": "COc1cc(C(=O)NCCSc2ccccc2)cc(OC)c1OC", "activity change, negative = inhibition": "inconclusive: -4.27% [inhibitor]"},
      {"smiles": "CNC(=S)N(Cc1ccco1)Cc1cc2cc(OC)c(OC)cc2[nH]c1=O", "activity change, negative = inhibition": "inactive: -4.06%"},
      {"smiles": "COc1ccc(/C=N\\NC(=S)SCN2C(=O)C3CCC(C)(C2=O)C3(C)C)cc1", "note": "(configuration not stated)", "Potency": "inconclusive: 39.8 µM [inhibitor, single point]"},
      {"smiles": "CC1CCN(C(=S)c2cn(Cc3cccc(F)c3)c3ccccc23)CC1", "Potency": "inconclusive: 35.5 µM [inhibitor, partial curve]"},
      {"smiles": "CCOC(=O)N1CCC(NC(=O)CCc2nc(C3=CCN(C)CC3)no2)CC1", "Potency": "inconclusive: 3.16 µM [inhibitor, full curve] and inconclusive: 35.5 µM [inhibitor, partial curve]"},
      {"smiles": "Nn1c(SC/C=C/c2ccccc2)nnc1-c1ccccn1", "Potency": "inconclusive: 29.9 µM [inhibitor, single point]"},
      {"smiles": "N#CC(C#N)=C1SC(=Nc2ccccc2)C(=Nc2ccccc2)N1c1ccccc1", "Potency": "inconclusive: 11.2 µM [inhibitor, partial curve]"},
      {"smiles": "COc1cccc(C(=O)C[n+]2ccccc2/C=N/O)c1", "Potency": "inconclusive: 7.08 µM [inhibitor, single point]"},
      {"smiles": "CCOc1cccc(C(=O)NC2=NCCS2)c1", "activity change, negative = inhibition": "inactive: 128%"},
      {"smiles": "CC(C)c1ccc(C2C3=C(CC(C)(C)CC3=O)NC3=C2C(=O)c2ccccc23)cc1", "note": "(configuration not stated)", "Potency": "inconclusive: 37.7 µM [inhibitor, single point]"},
      {"smiles": "CCN(C(=O)COC(=O)c1c(-c2ccccc2)noc1C)c1c(N)n(Cc2ccccc2)c(=O)[nH]c1=O", "activity change, negative = inhibition": "inactive: 17.1%"},
      {"smiles": "CCOC(=O)/C(=N\\Nc1ccccc1[N+](=O)[O-])c1csc(N)n1", "Potency": "inconclusive: 31.6 µM [inhibitor, partial curve]"},
      {"smiles": "CCOC(=O)N1CCC(N2CCCC(C(=O)c3ccc4cc(OC)ccc4c3)C2)CC1", "note": "(configuration not stated)", "activity change, negative = inhibition": "inactive: -14.7%"},
      {"smiles": "Cc1cc(Br)ccc1SCC(=O)OCC(=O)NCc1ccco1", "Potency": "inconclusive: 28.2 µM [inhibitor, partial curve]"},
      {"smiles": "Cc1ccccc1N1C(=O)C(Cl)=C(N2CCN(c3ccccc3)CC2)C1=O", "Potency": "inconclusive: 31.6 µM [inhibitor, partial curve]"},
      {"smiles": "c1ccc(-c2c(-c3ccccc3)n(Cc3ccco3)c3ncnc(NCCCn4ccnc4)c23)cc1", "Potency": "inconclusive: 12.6 µM [inhibitor, partial curve]"},
      {"smiles": "CCOC(=O)C(=O)/C(=C\\N(C)C)c1onc(-c2c(F)cccc2Cl)c1C(=O)OC", "activity change, negative = inhibition": "inactive: 4.67%"},
      {"smiles": "COCCN1Cc2cccc(C(=O)NCc3ccccc3OC)c2C1=O", "Potency": "inconclusive: 5.62 µM [inhibitor, single point]"},
      {"smiles": "CC(C)c1ccc(N(C(=O)c2csnn2)C(C(=O)NC2CCCC2)c2cccnc2)cc1", "note": "(configuration not stated)", "activity change, negative = inhibition": "inactive: -13.4%"},
      {"smiles": "Cc1ccc(SC[C@H](c2ccccc2)N2CCN(CCc3ccccc3)CCC2=O)cc1", "Potency": "inconclusive: 14.1 µM [inhibitor, partial curve]"},
      {"smiles": "COc1ccccc1NC(=O)Nc1ccc(C(N)=O)cc1", "activity change, negative = inhibition": "inactive: 8.41%"},
      {"smiles": "O=[N+]([O-])c1ccc(NC2CCCC2)c2ccncc12", "Potency": "inconclusive: 20 µM [inhibitor, single point]"},
      {"smiles": "O=C(NC1CCCCC1)C(=S)NCc1ccccc1", "activity change, negative = inhibition": "inactive: 75.3%"},
      {"smiles": "CCCCNC(=O)C1c2cc(OC)c(OC)cc2C(=O)N(C)C1c1cccs1", "note": "(configuration not stated)", "activity change, negative = inhibition": "inactive: 16.3%"},
      {"smiles": "CN1CCN(C2=Cc3ccccc3Sc3cc(F)c(F)cc32)CC1", "Potency": "inconclusive: 22.4 µM [inhibitor, partial curve]"},
      {"smiles": "O=C(N/N=C/c1cc(Br)cc(Br)c1O)c1cccc(N2CCCC2=O)c1", "Potency": "inconclusive: 2.24 µM [inhibitor, single point]"}
    ]}
  ]
}
